Data on 87 compounds can be found in PubChem BioAssay AID463173 (ICCB-Longwood Screening Facility, Harvard Medical School, 2010).

About 1,700 (3.3%) of roughly 52,000 compounds were called active. Cut-off read from the data, not from the text of the source: active = survival mostly below about 52% (no sharp cut-off); inactive = mostly above about 56%. This is one part of the list.

The assay has as its system Wild type. The experiment in a line: growth inhibition of S. aureus wild type versus tarO mutant, primary screen, teichoic acid synthesis inhibitors, RN4220, OD600 (AID 463173). The following applies: S. aureus RN4220 wild type/DeltatarO growth, OD600, 18 h, active compounds read low, screened at 18.75 µg/mL (by protocol).
For `Cc1cc(SCC(=O)Nc2ccc(Cl)cc2)nc2ccccc12`, the survival was inactive: 81%. `Cc1cccc(N2CCN(C(=O)C3CCN(Cc4nc(-c5ccc(Cl)cc5)oc4C)CC3)CC2)c1C`: the survival is inactive: 47%.

For the compound `COc1cc(OC)c(NC(=O)c2cc3c(s2)-c2ccc(Cl)cc2SC3)cc1Cl`, the survival is inactive: 96%. In the case of `Cc1cc(NC(=O)C2CCC(CNS(=O)(=O)c3ccc(Br)s3)CC2)ccc1Br` (configuration not stated), the survival is inactive: 92%.

Turning to `N#CCN(CC#N)C(=O)C1c2ccccc2Oc2ccccc21`, the survival is inactive: 110%.

As to `CCc1nn2c(-c3ccco3)ccnc2c1-c1ccccc1`, the survival is inactive: 89%. On to `COc1ccc(C)cc1S(=O)(=O)Nc1cccc(-c2ccc(N3CCC(C)CC3)nn2)c1`, for which the survival was active: -4%. For the compound `Cc1nonc1OCC(C)(N)COc1nonc1C`, the survival is inactive: 101%. Turning to `CCC1CN(C(=O)N2CCC(C(=O)NCc3cc(OC)ccc3OC)CC2)c2ccccc2O1` (configuration not stated), the survival is inactive: 86%. Regarding `O=C(NCC1COc2ccccc2O1)c1cn(Cc2ccc(F)cc2)nn1` (configuration not stated), the survival is inactive: 107%. The same measure for `CCOC(=O)c1cc(S(=O)(=O)Nc2ccc(OC(F)(F)F)cc2)[nH]n1`: inactive: 87%; for `COc1ccc(NC(=O)CSc2nc(-c3ccc(OC)cc3)cc(=O)[nH]2)cc1`: inactive: 148%; for `Cn1c(C(=O)NCc2ccc(F)cc2)cc2cc(S(=O)(=O)N3CCCCC3)ccc21`: inactive: 131%. For `COc1ccc(-c2cc3ccc(O)c(CN4CCN(CCO)CC4)c3oc2=O)cc1OC`, the survival was inactive: 80%. `Cc1ccc(CSc2nnc(-c3ccc(O)cc3)o2)cc1`: the survival was inactive: 108%.

`O=C(Nc1cccc(Cl)c1Cl)c1cc2nc(-c3ccc4c(c3)OCO4)cc(C(F)(F)F)n2n1`: the survival is inactive: 64%.

Turning to `Cc1cccn2c(Nc3ccc4c(c3)OCCO4)c(-c3ccc(Br)o3)nc12`, the survival is inactive: 66%.

Turning to `CCN(C(=O)Cn1c(SCC(=O)NCc2ccccc2)nc2ccccc21)c1cccc(C)c1`, the survival was inactive: 65%. For `COC(=O)c1cc(S(N)(=O)=O)c(C)o1`, the survival is inactive: 110%.

Turning to `O=C(NCc1ccccc1Cl)c1cnc(N2CCCCC2)c2ccccc12`, the survival is inactive: 124%. On to `COc1ccccc1NC(=O)c1oc2ccccc2c1NC(=O)c1ccc(S(=O)(=O)N(C)C)cc1`, for which the survival is inactive: 71%.

`COc1ccc(OC)c(CNC(=O)c2cc(-c3ccc(Cl)s3)nc3ccccc23)c1`: the survival was inactive: 88%.

Consider `COc1cc(-c2nc3n(n2)C(c2ccc(F)cc2)C(C(N)=O)=C(C)N3)cc(OC)c1OC` (configuration not stated), for which the survival was inactive: 84%. The same measure for `Cc1ccc(-n2nc(C(=O)NCCc3cccc(C)c3)c3c4ccccc4n(C)c3c2=O)cc1`: inactive: 126%; for `N#CC(C#N)=C1c2ccccc2-c2nc(C#N)c(C#N)nc21`: inactive: 107%. Consider `Cc1ccc(CNC(=O)c2cc(C3CC3)nc3c2c(C)nn3-c2cccc(Cl)c2C)cc1`, for which the survival is inactive: 94%. On to `CCCN(CCC)C(=O)c1c[nH]c2ccc(S(=O)(=O)Nc3cc(C)cc(C)c3)cc2c1=O`, for which the survival is inactive: 83%. Consider `Cc1ccc(NC(=O)c2nc(S(=O)(=O)Cc3cccc(C)c3)ncc2Cl)cc1`, for which the survival is active: -1%. In the case of `Cc1ccc(N2C(=O)c3oc4cc(C)c(C)cc4c(=O)c3C2c2cccc(O)c2)nc1` (configuration not stated), the survival is inactive: 78%. In the case of `Cc1ccc(S(=O)(=O)Nc2cc(Cl)c3oc4c(c3c2)C(=O)CC(C)(C)C4)cc1`, the survival is inactive: 144%. Take `COc1cc(C(=O)Nc2ccc(-c3cc(C(F)(F)F)nn3-c3ccccc3)cc2)cc(OC)c1OC`: the survival was inactive: 97%. Consider `COc1ccccc1CNc1nc(-c2ccco2)nn1S(=O)(=O)c1ccc(Cl)cc1`, for which the survival was inactive: 96%.

Regarding `CCc1ccccc1NC(=O)c1cnn2c(C(F)(F)F)cc(-c3ccc(OC)c(OC)c3)nc12`, the survival was inactive: 92%. For the compound `COc1cc(OC)c(NC(=O)Cn2c(=O)cc(C(F)(F)F)c3c(C)nn(C)c32)cc1Cl`, the survival was inactive: 102%. Regarding `COCCNC(=O)C(=O)Nc1c2c(nn1-c1ccccc1)CS(=O)(=O)C2`, the survival is inactive: 76%. Consider `Cc1ccccc1NC(=O)CSc1nc2ccc(NC(=O)COc3ccccc3F)cc2s1`, for which the survival is inactive: 81%. On to `CCOc1ccc(CCNC(=O)Cn2nc(C)c3c(C)n(-c4ccccc4)nc3c2=O)cc1OCC`, for which the survival was inactive: 19%. Turning to `CCOC(=O)c1c(C)sc(-c2c(-c3cc(C)ccc3C)[nH]c3c2c(=O)[nH]c(=O)n3C)c1O`, the survival was inactive: 72%. The same measure for `CCOC(=O)c1cnn(-c2cccc(F)c2)c1C1CCNCC1`: inactive: 124%; for `Cc1cccc(NC(=O)Cn2nc(N3CCN(c4ccccc4)CC3)ccc2=O)c1C`: inactive: 112%. `CCCCN(CC)CCCNC(=O)c1cn(C)c2ccc(S(=O)(=O)N(C)C3CCCCC3)cc2c1=O`: the survival was inactive: 88%. As to `CCOc1cc(C(=O)NCc2ccc3c(c2)CCN3C(=O)CC)cc(OCC)c1OCC`, the survival is inactive: 82%. Next, `O=C(Nc1ccccc1C(=O)O)c1cccc(S(=O)(=O)N2CCCC2)c1`: inactive: 92%; `O=C(NCc1ccc(F)cc1)C1CCN(C(=O)c2cnn(-c3ccccc3)c2-n2cccc2)CC1`: inactive: 80%; `COc1ccc2oc(=O)c(C(=O)N(C)Cc3cccnc3)cc2c1`: inactive: 88%.

For `Cc1ccccc1NC(=O)CN(C)S(=O)(=O)c1cccc2nsnc12`, the survival is inactive: 79%. With `COc1cccc(CNC(=O)CCC(=O)N2CC3CCCN3c3ccccc32)c1` (configuration not stated), the survival was inactive: 65%.

Consider `CCC(Cn1nnc2ccccc2c1=O)NC(=O)Nc1cccc(Cl)c1` (configuration not stated), for which the survival is inactive: 82%. For `CCc1cccc(NC(=O)Cn2c(=O)n(CC3CCC(C(=O)NCCc4ccccc4)CC3)c(=O)c3ccccc32)c1` (configuration not stated), the survival was inactive: 126%. In the case of `COc1ccc(-c2[nH]ncc2C(=O)NCc2ccc(F)cc2)cc1`, the survival is inactive: 69%. Turning to `Cc1ccc(C(=O)N2CCN(c3ccccc3F)CC2)cc1NC(=O)c1nsc2ccccc12`, the survival was inactive: 87%. Turning to `CN(C(=O)Nc1cn(C)c(=O)c2ccccc12)c1ccccc1`, the survival is active: -6%. In the case of `COc1ccc(N2C(=O)C(CC(=O)Nc3ccc(F)cc3)N(CCC3=CCCCC3)C2=O)cc1` (configuration not stated), the survival was inactive: 84%.

Take `COc1ccccc1CCNC(=O)Cc1c(C)c2c(cc(C)c3c(C)coc32)oc1=O`: the survival was inactive: 108%. Take `O=C(NC1CC(=O)N(c2cccc(F)c2)C1)C1CCCCC1` (configuration not stated): the survival was inactive: 72%. On to `COc1ccc(Cl)cc1NC(=O)CN1c2ccccc2S(=O)(=O)c2ccccc21`, for which the survival was inactive: 59%. Regarding `CCCCn1c(C)nc2ccccc21`, the survival is inactive: 99%. In the case of `O=C(CSC1=Nc2ccccc2N=C(c2ccc(F)cc2)C1)Nc1cc(F)ccc1F`, the survival was inactive: 99%.

In the case of `CCCCNc1cc(NC2CCCCC2)c2c3c(onc13)-c1ccccc1C2=O`, the survival was inactive: 117%. The same measure for `COCCCNC(=O)c1c(NC(=O)c2cc(=O)c3cc(C)c(C)cc3o2)sc2c1CCCC2`: inactive: 119%; for `COc1ccccc1CCNC(=O)c1cc2ccccn2n1`: inactive: 152%; for `CCCN1C(=O)CN(C2CCCCCC2)C(=O)C1c1ccc(OCC)c(OC)c1` (configuration not stated): inactive: 120%. As for `CCn1cc2nc(SCc3cccc(OC)c3)n(Cc3ccc(Cl)cc3)c(=O)c2n1`, the survival was active: 10%. As for `CCCOc1ccc(CNC(=O)C2CCN(c3nc4ccccc4nc3C(F)(F)F)CC2)cc1`, the survival is inactive: 59%.

Turning to `Cc1ccc(SCC(=O)Nc2cccc(-c3nc4cc(Cl)ccc4o3)c2C)cc1`, the survival is inactive: 80%. `CC1=C(C(=O)Nc2ccccc2Cl)C(c2cccs2)n2ncnc2N1` (configuration not stated): the survival is inactive: 95%. Next, `O=C(CCC1N=C2c3ccccc3N=C(SCc3cccc(F)c3)N2C1=O)NC1CCCCC1` (configuration not stated): inactive: 110%; `COC(=O)c1cc2sccc2n1Cc1ccccc1`: inactive: 28%; `COc1cccc(NS(=O)(=O)c2ccc3[nH]cc(C(=O)NC4CCCCC4)c(=O)c3c2)c1`: inactive: 50%. As for `Cc1cc(NS(=O)(=O)c2ccc(NC(=O)COc3c(C)cc(Br)cc3C)cc2)no1`, the survival was inactive: 133%. Turning to `O=S(=O)(NCc1ccccc1)c1ccc2[nH]c3c(c2c1)CCCCC3`, the survival was inactive: 99%. On to `Cc1c(CNC(C)c2ccccc2)c(C(=O)O)c(C)n1Cc1c(F)cccc1Cl` (configuration not stated), for which the survival is inactive: 76%. With `CCOC(=O)C1CCCN(C(=O)c2cc3c(=O)n(C)c4ccccc4c3s2)C1` (configuration not stated), the survival is inactive: 50%.

For the compound `CCOc1ccc(-c2c(C)nn3c(C)c(C(=O)NCC(C)c4ccccc4)cnc23)cc1OCC` (configuration not stated), the survival was inactive: 72%. As for `CCCCNS(=O)(=O)c1ccc(S(=O)(=O)n2cnc3ccccc32)cc1`, the survival was inactive: 112%.

Consider `CCc1ccc(N2C(=O)CS(=O)(=O)C23C(=O)N(Cc2ccccc2)c2ccccc23)cc1` (configuration not stated), for which the survival is inactive: 65%.

As to `COc1cc(-c2noc(-c3nnn(-c4ccc(Cl)cc4)c3C)n2)cc(OC)c1OC`, the survival was inactive: 81%.

Consider `Cc1ccc(-n2nc(CO)c(C(=O)NCCc3ccccc3)n2)cc1C`, for which the survival is inactive: 114%. For `CCCc1nn(C)c2c(=O)[nH]c(-c3cc(S(=O)(=O)N4CCN(C)CC4)ccc3OCC)nc12`, the survival was inactive: 104%. Regarding `O=C(Nc1ccccc1C(F)(F)F)c1noc2c1CCCCC2`, the survival was inactive: 64%. Next, `CC(C)(C)c1nc(NCc2cccs2)c2nnn(Cc3ccccc3Cl)c2n1`: inactive: 104%. On to `CCc1cccc(C)c1Nc1c(-c2ccc(N3CCOCC3)cc2)nc2ncccn12`, for which the survival was inactive: 77%.

For the compound `CC(=O)c1ccc(NC(=O)C2CCCN(S(=O)(=O)c3cn(C)cn3)C2)cc1` (configuration not stated), the survival was inactive: 87%. In the case of `CCOC(=O)c1cc2c(=O)n3ccccc3nc2n(Cc2ccco2)c1=NC(=O)c1ccccc1OC`, the survival is inactive: 64%. For `Cc1ccc(NC(=O)C2CCCN(c3nnc(C)c4c(C)n(-c5ccccc5)nc34)C2)cc1Cl` (configuration not stated), the survival was inactive: 73%.

With `Cc1c2cnn(CC(=O)Nc3ccc(F)cc3F)c(=O)c2c(C)n1Cc1cccc(Cl)c1`, the survival was inactive: 124%. On to `Cc1ccc(-c2nnn(CC(=O)N(Cc3cccs3)C(C(=O)NCC3CCCO3)c3ccc(F)cc3)n2)o1` (configuration not stated), for which the survival was inactive: 121%.
